From the supplement of paper PMC4723716
± gives the uncertainty stated by the source. Whole data set: some 9,900 compounds, median “viability index relative to DMSO control” near 1, cut for the lowest 2% near 0.85. Some of the results follow.

Test system: Plasmodium falciparum NF54 stage V gametocytes
Test: viability index relative to DMSO control (fraction); higher = less gametocyte killing
Conditions: 2.5 µM, incubation time: 72 h
Summary of the method: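 Gametocytes (P. falciparum NF54, stage V) were treated with compound at 2.5 µM for 72 hr at 37°C in low oxygen, in serum-free medium at 0.75% gametocytemia and 1.25% hematocrit. Counts of 20–70 µm2 red particles, taken from one field per well after MitoTracker Red CMXRos with saponin, were divided by the plate mean of solvent-only wells. This ratio is the viability index.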

[1] = library set: Broad Institute DOS

| Compound | viability index [1] | viability index (library set: Broad Institute Blood Stage) |
| --- | --- | --- |
| C[C@H]1CN([C@@H](C)CO)C(=O)Cc2cc(N(C)C)ccc2O[C@H]1CN(C)C(=O)NC1CCCCC1 | 0.9183 ± 0.0053 | – |
| COc1ccc(-c2ccccc2[C@H]2[C@@H](CO)N(C(=O)C3CCC3)[C@H]2C#N)cc1 | 1.1 ± 0.11 | – |
| C/C=C/c1ccc2n(c1=O)C[C@H]1[C@H](CO)[C@@H](C(=O)NCC(F)(F)F)N(C(=O)c3cccnc3)[C@@H]21.C/C=C\c1ccc2n(c1=O)C[C@H]1[C@H](CO)[C@@H](C(=O)NCC(F)(F)F)N(C(=O)c3cccnc3)[C@@H]21 | 0.992 ± 0.086 | – |
| COc1cccc(-c2ccc3c(c2)[C@@H]2[C@@H](CCN2S(=O)(=O)c2ccccc2F)[C@H](CO)N3)c1 | 0.986 ± 0.13 | – |
| CN1C(=O)c2cc(NC(=O)c3cccc(F)c3)ccc2OC[C@@H]2O[C@@H](CC(=O)NCc3ccccc3Cl)CC[C@H]21 | 0.999 ± 0.057 | – |
| O=C(C1CCCCC1)N1[C@H](CO)[C@H]2c3ccccc3N(S(=O)(=O)c3ccccc3)C[C@H]21 | 1.02 ± 0.039 | – |
| O=C(C[C@H]1CC[C@H]2[C@@H](COC[C@H](O)CN2CCc2ccccc2)O1)NCCCN1CCOCC1 | 1.04 ± 0.046 | – |
| CCc1cnc(N2[C@@H](C#N)[C@@H](c3ccc(C4=CCCCC4)cc3)[C@@H]2CO)s1 | 1.05 ± 0.022 | – |
| COCC(=O)N1[C@H](CO)[C@@H](c2ccccc2)C12CN(Cc1cc(F)ccc1F)C2 | 1.07 ± 0.023 | – |
| CCC(=O)N1[C@H](CO)[C@H](c2ccccc2)[C@H]1CN(CC1CCC1)S(C)(=O)=O | 0.9339 ± 0.008 | – |
| CCCN(C)C[C@H]1Oc2cc(/C=C/c3ccccc3)ccc2S(=O)(=O)N([C@H](C)CO)C[C@H]1C | 1.05 ± 0.026 | – |
| CN1CCN(C(=O)C[C@H]2CC[C@H]3[C@H](COc4ccc(NC(=O)c5cccs5)cc4C(=O)N3C)O2)CC1 | 1.04 ± 0.038 | – |
| CCCNC(=O)N(C)C[C@@H]1[C@@H](c2ccccc2)[C@H](CO)N1C(=O)c1ccccc1 | 0.953 ± 0.014 | – |
| CO[C@H]1CN(C)C(=O)c2ccc(NC(=O)c3nc4ccccc4s3)cc2OC[C@H](C)N(Cc2cccnc2)C[C@H]1C | 1.051 ± 0.0049 | – |
| CCC(=O)N1CC2(C1)[C@@H](c1ccc(-c3cccc(C)c3)cc1)[C@H](CO)N2S(C)(=O)=O | 1.1 ± 0.019 | – |
| CCC(=O)N1C[C@]2(CCN(CC2)C(=O)Nc2c(C)noc2C)c2c([nH]c3cc(OC)ccc23)[C@H]1CO | 1.01 ± 0.019 | – |
| O=C(N[C@@H]1CC[C@@H](CC(=O)N2CCOCC2)O[C@H]1CO)c1cccc(F)c1 | 0.932 ± 0.041 | – |
| O=C(NCC1CCCCC1)[C@H]1[C@H](CO)[C@H]2Cn3c(cccc3=O)[C@@H]1N2C(=O)c1ccncc1 | 1.056 ± 0.0024 | – |
| C[C@@H]1CN([C@H](C)CO)C(=O)Cc2cc(NC(=O)C3CC3)ccc2O[C@@H]1CN(C)S(=O)(=O)c1cn(C)cn1 | 0.971 ± 0.066 | – |
| O=C(Cc1cccnc1)N1[C@@H](CO)[C@H](c2ccccc2)[C@@H]1CNCC1CCC1 | 0.969 ± 0.051 | – |
| O=C(C[C@H]1C=C[C@H](NC(=O)c2ccncc2)[C@@H](CO)O1)NCC1CC1 | 1.08 ± 0.027 | – |
| CN(C[C@@H]1[C@H](c2ccccc2)[C@@H](CO)N1Cc1ccccn1)S(C)(=O)=O | 1.03 ± 0.036 | – |
| CN(C)C(=O)C[C@H]1CC[C@@H]2[C@H](COC[C@H](O)CN2C(=O)c2ccncc2)O1 | 1.06 ± 0.032 | – |

| Compound | viability index [1] | viability index (library set: Broad Institute Blood Stage) |
| --- | --- | --- |
| CCC(=O)N1C[C@@H](O)COC[C@@H]2O[C@H](CC(=O)NC)CC[C@H]21 | 1.12 ± 0.048 | – |
| COc1ccc(-c2ccc([C@H]3[C@H]4CN(Cc5ccccc5)CC(=O)N4[C@H]3CO)cc2)cc1 | 1.04 ± 0.02 | – |
| C[C@@H]1CN([C@H](C)CO)C(=O)c2cc(NC(=O)CCC(F)(F)F)ccc2O[C@@H](C)CCCCO[C@@H]1CN(C)C(=O)c1ccncc1 | 1.01 ± 0.023 | – |
| O=C(C[C@H]1C[C@@H]2c3cc(NC(=O)CC4CC4)ccc3O[C@@H]2[C@@H](CO)O1)NCC1CC1 | 1.02 ± 0.012 | – |
| O=C(C[C@H]1C[C@@H]2c3cc(NC(=O)C4CCOCC4)ccc3O[C@@H]2[C@@H](CO)O1)NCc1cccnc1 | 1.06 ± 0.018 | – |
| CN1CCN(C(=O)C[C@H]2CC[C@@H]3[C@H](COC[C@@H](O)CN3CC3CCCCC3)O2)CC1 | 1.09 ± 0.021 | – |
| COc1ccc(NC(=O)Nc2cccc3c2O[C@H](CN(C)Cc2ccc(C(=O)O)cc2)[C@H](C)CN([C@@H](C)CO)C3=O)cc1 | 1 ± 0.091 | – |
| Cc1noc(C)c1S(=O)(=O)Nc1ccc2c(c1)CC(=O)N([C@@H](C)CO)C[C@H](C)[C@H](CN(C)Cc1ccc(Oc3ccccc3)cc1)O2 | 0.923 ± 0.045 | – |
| CS(=O)(=O)Nc1ccc2c(c1)[C@H]1C[C@H](CC(=O)NCc3cc(F)ccc3F)O[C@H](CO)[C@H]1O2 | 1.1 ± 0.061 | – |
| CCCNC(=O)C[C@@H]1CC[C@@H]2[C@H](COC[C@H](O)CN2C(=O)Nc2ccc(Cl)c(Cl)c2)O1 | 1.01 ± 0.1 | – |
| CN(C)C(=O)C[C@H]1CC[C@H]2[C@H](COc3ccc(NC(=O)C4CCCCC4)cc3C(=O)N2C)O1 | 1.095 ± 0.0094 | – |
| CO[C@H](CN(C)C(=O)Nc1ccc(Cl)cc1)[C@H](C)CN(Cc1ccccc1Cl)[C@H](C)CO | 0.993 ± 0.037 | – |
| C[C@H](CO)N1C[C@H](C)[C@@H](CN(C)C(=O)c2ccccc2)Oc2ncc(C#Cc3ccccc3)cc2C1=O | 0.963 ± 0.029 | – |
| Cc1ccccc1S(=O)(=O)N1C[C@@H](O)COC[C@H]2O[C@H](CC(=O)N3CCCCC3)CC[C@@H]21 | 1.009 ± 0.0066 | – |
| O=C(C[C@@H]1C[C@@H]2c3cc(NS(=O)(=O)c4ccc(F)cc4)ccc3O[C@@H]2[C@@H](CO)O1)NCCN1CCCCC1 | 1.095 ± 0.0079 | – |
| CC(=O)N1CC2(C1)[C@H](c1ccccc1)[C@H](CO)N2C(=O)Cc1ccccc1 | 1.04 ± 0.024 | – |
| CO[C@@H]1CC[C@H]2CCOc3c(C#N)cccc3C(=O)N(C)C[C@@H](c3ccccc3)CC(=O)N(C)C[C@H]1O2 | 1.08 ± 0.16 | – |
| COc1ccc(C#Cc2ccc([C@@H]3[C@H](CO)N4C(=O)CN(C(=O)NC(C)C)C[C@@H]34)cc2)cc1 | 0.927 ± 0.076 | – |
| C[C@@H]1CN([C@@H](C)CO)C(=O)c2c(c3ccccc3n2C)-c2ccccc2CO[C@@H]1CN(C)C(=O)[C@@H](Cc1ccccc1)N(C)C | 0.965 ± 0.12 | – |
| COc1ccc(NC(=O)N2C[C@@]3(C2)CN([C@H](CO)c2c3c3ccc(OC)cc3n2C)C(=O)C2CCC2)cc1 | – | 0.841 ± 0.05 |
| C/C=C/c1ccc([C@@H]2[C@@H](C#N)N(C(=O)NC3CCCCC3)[C@@H]2CO)cc1 | 1.06 ± 0.062 | – |
| COc1ccc(S(=O)(=O)Nc2ccc3c(c2)CC(=O)N([C@@H](C)CO)C[C@H](C)[C@H](CN(C)C(=O)Nc2c(C)noc2C)O3)cc1 | 0.972 ± 0.019 | – |
